# Laboratory results taken from PubChem BioAssay AID1346428 (National Center for Advancing Translational Sciences (NCATS), 2018).
# Several values for one entry are separate records, joined by “and”; a condition that tells them apart may be missing. Identical values can stand only once. Hit rate of the full screen: of about 48,000 compounds, about 1,200 (2.5%) were called active. Not shown: some 2% with an inconclusive outcome.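 The calls were made as follows: active = activation of at least 60% and not above a set upper limit (about 1 call in 100 departs from these limits); inconclusive = activation of 40% to 60%, or above that upper limit; inactive = activation under 40%.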 The list shows a part of the results.
# Target: Probable G-protein coupled receptor 32 (Homo sapiens) (UniProt O75388)
# Test: qHTS for Agonists of Human Resolvin D1 Receptor DRV1; also: 0% is about no effect
# Conditions: CHO-K1 GPR32 beta-arrestin PathHunter luminescence, 90 min; at 76.9 µM; stronger effect = higher value; zero percent set by DMSO-only wells
# In short: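 CHO-K1 cells stably expressing ProLink-tagged GPR32 and Enzyme Activator-tagged beta-arrestin were seeded at 2,500 cells/well overnight, exposed to compounds for 90 min at 37 °C, then read by beta-Gal complementation chemiluminescence after 1 h detection reagent.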
# UniProt O75388, sequence (O75388 whole entry, looked up): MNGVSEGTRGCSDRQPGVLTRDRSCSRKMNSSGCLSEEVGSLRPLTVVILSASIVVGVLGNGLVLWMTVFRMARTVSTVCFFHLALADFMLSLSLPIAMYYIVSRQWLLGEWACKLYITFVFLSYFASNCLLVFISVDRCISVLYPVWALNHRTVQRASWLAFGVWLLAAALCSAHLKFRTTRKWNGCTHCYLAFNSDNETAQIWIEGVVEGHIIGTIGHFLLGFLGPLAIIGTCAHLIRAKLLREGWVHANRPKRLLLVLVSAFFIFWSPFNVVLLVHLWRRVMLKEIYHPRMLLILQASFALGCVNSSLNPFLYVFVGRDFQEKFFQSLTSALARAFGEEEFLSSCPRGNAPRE
row,SMILES,activation
1,COC(=O)c1ccc(NC(=O)CCc2c(C)nc3c(-c4ccccc4)c(C)nn3c2C)cc1,inactive: 22.7%
2,CN(C)CCCN1c2ccccc2Sc2ccc(C(F)(F)F)cc21,inactive: 47.5% and inactive: -15.4%
3,CCOC(=O)Cn1c(=O)n(CC2CCCO2)c2nc(-c3ccccc3F)nc(C(N)=O)c21 (configuration not stated),inactive: -13.4%
4,Cc1cccc(NC(=O)c2cc(S(=O)(=O)NCc3ccc4c(c3)OCO4)ccc2F)c1C,inactive: -11.3%
5,Cc1ccc(Cn2cc(C(=O)c3ccc(F)cc3)c(=O)c3cc4c(cc32)OCO4)cc1,inactive: 6.69%
6,COc1ccc(CNS(=O)(=O)c2cc3c(cc2C)N(C)CCO3)cc1,inactive: -3.81%
7,COc1ccc(Cn2c(CNS(=O)(=O)c3ccc(C)c(C)c3)nc3cccnc32)cc1,inactive: -23.8%
8,CCn1nnc2cc(C(=O)Nc3cccc(Cl)c3C)ccc21,inactive: 1.42%
9,COc1ccccc1-n1c(=O)c2c3c(sc2n(C)c1=O)CN(C(C)=O)CC3,inactive: -0.951%
10,CCOC(=O)Cc1ccc(NC(=O)Nc2ccccc2OCc2cc(=O)n3ccccc3n2)cc1,inactive: -11.5%
11,O=C(NCc1ccc2c(c1)CCN2C(=O)c1ccccc1)Nc1cc(F)ccc1F,inactive: -12.1%
12,COc1ccc(-c2noc(-c3ccc(N4CCCC4)c([N+](=O)[O-])c3)n2)cc1,inactive: 4.49%
13,COc1ccc(C)cc1S(=O)(=O)NCC(c1cccs1)S(=O)(=O)c1ccc(C)cc1 (configuration not stated),inactive: -27.7%
14,CC(Oc1ccc(F)cc1)C(=O)Nc1nc(-c2ccc(F)cc2)ns1 (configuration not stated),inactive: 29%
15,CCN1CCN(c2ncnc3c2cnn3-c2ccc(C)c(Cl)c2)CC1,inactive: 11.6%
16,COc1ccc(-c2nc3scc(CCNS(=O)(=O)c4ccccc4F)n3n2)cc1,inactive: 16.2%
17,Cc1ccc(NS(=O)(=O)c2cnc(N)nc2)c(C)c1,inactive: -16.4%
18,CCN(CC)CCNC(=O)C1CCN(c2cc(C)nc3c(-c4ccc(Cl)cc4)c(C)nn23)CC1,inactive: -1.74%
19,O=C(NCCc1nc2ccccc2n1Cc1ccccc1)c1ccco1,inactive: -17.2%
20,Cc1nc(-n2nc(C)c(Cc3ccc4c(c3)OCO4)c2C)sc1C(=O)Nc1cccc(Cl)c1,inactive: -16.2%
21,CCc1nn(CC(=O)Nc2cc(C)cc(C)c2)c(=O)c2cc3sccc3n12,inactive: 5.65%
22,CCN(CC)CCNC(=O)c1cc(-c2ccc(Br)s2)nc2ccccc12,inactive: 12.6%

row,SMILES,activation
1,Cc1ccc(CN2CCCn3nc(C(=O)NCc4ccc(OC(C)C)cc4)cc3C2=O)cc1,inactive: 24.9%
2,O=Cc1ccccc1C=O,inactive: 6.35%
3,CCOc1ccccc1NC(=O)N1CCN(C)c2ncccc21,inactive: 4.88%
4,Cc1ccc(NC(=O)CSc2n[nH]c(-c3ccc(F)cc3)n2)cc1F,active: 66.8%
5,CSc1cccc(NC(=O)CC(c2cccs2)N2Cc3ccccc3C2=O)c1 (configuration not stated),inactive: 2.71%
6,COc1cc(-c2noc(CN3CCN(c4cccc(Cl)c4)CC3)n2)cc(OC)c1OC,inactive: 39.1%
7,CCOC(=O)c1cccc(NC(=O)c2ccc3nc(C(C)C)oc3c2)c1,inactive: -19.8%
8,CSc1ccc(CCNC(=O)CCc2c(C)nc3c(c(C)nn3-c3ccc(C)c(C)c3)c2C)cc1,inactive: 10.1%
9,CCC(C(=O)Nc1nnc2n1CCS2)c1ccccc1 (configuration not stated),inactive: 18%
10,Cc1ccc(CN2C(=O)CN(C3CCC(C)CC3)C(=O)C2c2ccc(F)cc2)cc1 (configuration not stated),inactive: -23.7%
11,O=C(Nc1cccc(Cl)c1Cl)c1cc2nc(-c3ccc(Cl)cc3)cc(C(F)(F)F)n2n1,inactive: 12.5%
12,CCCN(CCC)CCNC(=O)c1cc2c(-c3ccc(Cl)cc3)nn(C)c2s1,inactive: -5.37%
13,COc1ccc(Cn2c(=O)n(-c3ccccc3C)c(=O)c3c4c(sc32)CN(C(C)=O)CC4)cc1,inactive: -18.8%
14,COc1ccc(-n2nc(C(=O)Nc3ccc(Cl)cn3)c3c4ccccc4n(C)c3c2=O)cc1Cl,inactive: -1.45%
15,Cc1cccc(NC(=O)c2sc3nc4c(cc3c2N)CCCCCC4)c1C,inactive: -4.72%
16,COC(=O)c1c(NC(=O)Cc2coc3ccc(C)cc23)sc2c1CCC2,inactive: -5.08%
17,C/C(=N\O)c1ccc(OCC(=O)N2CCCCC2)cc1,inactive: -2.59%
18,Cc1ccc(C(=O)c2ccc(CC(=O)O)n2C)cc1,inactive: -24.6%
19,Cc1cc(F)ccc1-n1nnc(C(N)=O)c1C,inactive: 0.629%
20,Cc1ccccc1Nc1c(-c2cccc(N(C)C)c2)nc2ccc(Br)cn12,inactive: -22.6%
21,CC(=O)c1cccc(NC(=O)c2c(-c3ccccc3)c(-c3ccccc3)nn(C)c2=O)c1,inactive: -24%
22,CN(Cc1ccccc1)c1ccc(-c2nc(-c3ccco3)no2)cc1[N+](=O)[O-],inactive: 5.81%

row,SMILES,activation
1,O=C(c1ccccc1Cl)N(Cc1ccco1)Cc1ccco1,inactive: -17.3%
2,Cc1ccc(CCNC(=O)c2cc(Nc3ccc(C)c(C)c3)nc3ccccc23)cc1,inactive: 20.9%
3,COc1ccc(C2C(C(N)=O)=C(C)Nc3nc(CCCO)nn32)cc1 (configuration not stated),inactive: 5.92%
4,Cc1cc(=O)n(CC(=O)Nc2ccc([N+](=O)[O-])cc2)c(-n2nc(C)cc2C)n1,inactive: -15.1%
5,CCOC(=O)c1ccc(NC(=O)CC2C(=O)N(c3ccc(C)cc3)C(=O)N2C2CCCCC2)cc1 (configuration not stated),inactive: 4.71%
6,Cc1cc(C(F)(F)F)nn1-c1nc(-c2ccccc2)cc(C(F)(F)F)n1,inactive: -3.7%
7,CCCCN(CCCC)CCCOC(=O)c1ccc(N)cc1,inactive: 6.9%
8,COc1ccc(CCN2C(=O)c3[nH]nc(-c4ccccc4O)c3C2c2cccc(OC)c2)cc1 (configuration not stated),inactive: -15.2%
9,Cc1ccccc1NC(=O)Cn1c(=O)n(CCc2ccccc2)c(=O)c2sc3ccccc3c21,inactive: 4.6%
10,Cc1[nH]c2ccccc2c1C(c1ccccc1)c1cccs1 (configuration not stated),active: 73.6%
11,Cc1cccc(-n2c(SCc3nc(-c4ccccc4C)no3)nnc2-c2ccccc2)c1,inactive: 2.77%
12,CN1CCN(c2oc(/C=C/c3ccc(F)cc3)nc2C#N)CC1,inactive: -14.8%
13,FC(F)(F)C(Cl)Br (configuration not stated),inactive: -8.36%
14,O=C(O)CN1C(=O)c2cccc3cccc(c23)C1=O,inactive: -0.204%
15,CCc1nn(CC(=O)NC(C)CC)c(=O)c2cc3c(OC)cccc3n12 (configuration not stated),inactive: -7.83%
16,COc1cc(NC(=O)c2nn(-c3ccc(C)cc3)c(=O)c3c2c2ccccc2n3C)cc(OC)c1OC,inactive: -5.03%
17,CCOC(=O)c1ccccc1NS(=O)(=O)c1ccc(N2CCCCS2(=O)=O)cc1,inactive: -2.43%
18,COc1ccc(-c2noc(-c3ccc(N4CCN(c5ccc(OC)cc5)CC4)c([N+](=O)[O-])c3)n2)cc1,inactive: -0.499%
19,CCOc1ccc(-n2nc(CO)c(C(=O)NCc3cccnc3)n2)cc1,inactive: -1.31%
20,CC[N+](C)(CC)CCOC(=O)C1c2ccccc2Oc2ccccc21,inactive: -17.3%
21,COc1cc(C)ccc1OCCCn1c(-c2ccc(Cl)cc2)nc2ccccc2c1=O,inactive: 7.59%
22,Cc1cccn2c(=O)c(C(=O)NCc3ccccc3Cl)c(O)nc12,inactive: -11.1%

row,SMILES,activation
1,COc1cccc(N2CCN(C(=O)c3cc4c(=O)n(Cc5ccccc5)ccc4nc3C)CC2)c1,inactive: 23.9%
2,COC(=O)c1cccc(Cn2nnc3sc4c(c3c2=O)CCC(C(C)(C)C)C4)c1 (configuration not stated),inactive: 11.2%
3,O=C(COc1ccccc1)NCCc1csc(-c2cccc(F)c2)n1,inactive: 45.6%
4,COc1ccc(CCNC(=O)CCCCn2c(=O)c3ccccc3n(CC(=O)Nc3ccc(C)cc3C)c2=O)cc1OC,inactive: 1.8%
5,Cc1ccc(C)c(Nc2nc(-c3ccccc3)c3cc(Br)ccc3n2)c1,inactive: 15.7%
6,CCN1C(=O)C(Cc2nc3ccccc3c(=O)n2-c2ccc(OC)cc2)c2cc(C)ccc21 (configuration not stated),inactive: -20.2%
7,N#Cc1cccc(NC(=O)Cn2nc(Cc3ccncc3)c3ccccc3c2=O)c1,inactive: -18.8%
8,Cc1cccc(N(C)C(CNS(=O)(=O)c2ccccc2)c2ccccc2)c1 (configuration not stated),inactive: -3.36%
9,Cc1cccc(C(=O)Nc2cccc(OCc3cc(=O)n4cccc(C)c4n3)c2)c1,inactive: -11%
10,Cc1nnc(N2CCCC(C(=O)Nc3cccc(C(F)(F)F)c3)C2)c2nn(-c3ccccc3)c(C)c12 (configuration not stated),inactive: 47.9%
11,O=C(Nc1cccc(Cl)c1)c1cc(-c2ccc3c(c2)OCCO3)on1,inactive: 22.8%
12,CCN(CC)CCNC(=O)C(=O)NCC(c1cccnc1)N1CCN(c2ccccc2)CC1 (configuration not stated),inactive: -6.16%
13,Cc1cc(Sc2ccc(Cl)cc2)nc2ccccc12,inactive: 0.791%
14,CC(C)(C)OC(=O)N1CCC(c2c(C(=O)NC3CCCCC3)cnn2-c2cccc(F)c2)CC1,inactive: -7.85%
15,O=C(CSc1ccccc1)NCc1ccc2c(c1)CCN2C(=O)c1ccc(Cl)cc1,inactive: -22.1%
16,O=C(COc1ccccc1)NCc1ccc2c(c1)CCN2C(=O)c1ccccc1,inactive: -21.2%
17,Cn1nnnc1SCCNCc1ccc(OCc2ccccc2Cl)cc1,inactive: 10.4%
18,CC(NC(=O)c1ccc(NC(=O)c2nsc3ccccc23)cc1)c1ccccc1 (configuration not stated),inactive: -13.1%
19,Cc1cccc(C(=O)Nc2cccc(C(=O)OCc3cc(=O)n4nc(C(C)C)sc4n3)c2)c1,inactive: -6.25%
20,CC(O)CN(CCN(CC(C)O)CC(C)O)CC(C)O (configuration not stated),inactive: -24.1%
21,O=C(Nc1c(C(=O)N2CCN(c3ccc(F)cc3)CC2)oc2ccccc12)c1c(F)cccc1F,inactive: -4.43%
